As a reminder, the % Inhibition is the drop in the measured response relative to a control, in per cent.

Among all 150,000 compounds or so, about 540 (0.36%) showed an effect of 50% or more. This is one part of the list.

This assay concerns Plasmodium falciparum. The experiment in a line: Primary screen in NF54 nanoGlo assay, in single point, at 2uM, 72h; a lower Z score goes with more inhibition. It counts as functional, Erythrocyte. As to conditions: timepoint 72 hour.
With `CCC(O)C1CCCCN1CC(=O)N(C)C` (stereo unspecified), the “% Inhibition” value is on record as -1% and the Z score is given as 0.14.
For `O=C(NC1CCCCC1)c1ccc(CCc2nc3ccccc3[nH]2)cc1` the same measures were 15% and -1.76.
For `COc1ccc(-n2ncc3c2NC(=O)C[C@]32C(=O)N(CC(N)=O)c3ccc(C)cc32)cc1`, the “% Inhibition” value is reported as -1% and the Z score came out at 0.12.
Turning to `COCCN1C[C@@H](Cc2ccc3c(c2)OCO3)CC1=O`, the “% Inhibition” value was -1% and the Z score came out at 0.17.
For `CC(C)(C)c1nnc(NCCCOCC2CCOCC2)s1` the same measures were -2% and 0.31.
Take `CCn1ccc2c(cc(C(=O)Nc3cccc(Cl)c3)n2C)c1=O`: the “% Inhibition” value is on record as -6% and the Z score turned out to be 0.58.
The like results for `Cn1nnc2c(N[C@@H]3CC=C(c4ccc(F)cc4)CC3)ncnc21` were, in that order, -9% and 1.7.
For the compound `Cn1cncc1[C@H]1[C@H](NC(=O)[C@H]2CC2(C)C)CCC(=O)N1C1CC1`, the “% Inhibition” value was determined as 2% and the Z score is listed as -0.33.
`COc1cccc(C(=O)NC[C@](C)(O)C2CCCC2)c1`: the “% Inhibition” value is -3% and the Z score was determined as 0.36.
Regarding `Cc1cc2c(N3CCCC3CC(O)c3ccc(F)cc3)nccn2n1` (stereo unspecified), the “% Inhibition” value is reported as -11% and the Z score was found to be 1.44.
For `CCCn1cnnc1CN(C)C(=O)NCC1(N2CCN(C)CC2)CCCC1` the same measures were -2% and 0.4.
The like results for `O=C(CN1C(=O)[C@@H]2CCCN2C(=O)c2ccc(F)cc21)Nc1ccccc1F` were, in that order, 6% and -0.92.
As for `CC(=O)N1CC(NC(=O)c2cscc2-c2ccccc2)C1`, the “% Inhibition” value is -13% and the Z score is on record as 1.67.
As for `CN(C)c1cccc(C(=O)N2C[C@H]3CC[C@@H](C2)N(C)C3)c1`, the “% Inhibition” value was -21% and the Z score is 2.22.
The like results for `Cc1nn(C)c(Cl)c1C(=O)N[C@@H](C)CCc1ccccc1` were, in that order, -4% and 0.62.
The like results for `CC(C)(C)S(=O)(=O)N1CCC(NC(=O)N2CC(F)C2)CC1` were, in that order, -8% and 1.77.
Turning to `Cc1cc(N2CCN(S(=O)(=O)c3cccs3)CC2)nc(N2CCOCC2)n1`, the “% Inhibition” value is recorded as -14% and the Z score came to 2.13.
Regarding `Cc1nc(-c2c(-c3ccccc3)ncn2C)c[nH]1`, the “% Inhibition” value is given as -8% and the Z score came out at 1.07.
In the case of `CN(C)C(=O)CO[C@H]1COCC[C@@H]1NC(=O)c1cc(C(F)(F)F)n[nH]1`, the “% Inhibition” value is recorded as -8% and the Z score came to 1.36.
For `O=C(Nc1ccc2c(c1)OCO2)Nc1cnn(C[C@H]2COc3ccccc3O2)c1` the same measures were 13% and -1.66.
For `CCCn1c(=O)[nH]c(=O)c2c1nc(-c1ccc(-c3ccccc3)cc1)n2CCOC`, the “% Inhibition” value was found to be 13% and the Z score is -1.57.
For `COc1cc(NC(C)=O)ccc1NCc1sccc1Cl` the same measures were -9% and 1.44.
`Cc1cc(C)c(-c2ccc(C(=O)NC3CCOCC3)nc2)c(C)c1`: the “% Inhibition” value is -4% and the Z score is listed as 0.64.
Turning to `CCOC1CCN(C(=O)[C@@H]2CC[C@H](NC(=O)c3nc(C)c[nH]3)C2)CC1`, the “% Inhibition” value worked out at 1% and the Z score is on record as -0.14.
The like results for `O=C(NCc1cccc(Cl)c1)[C@H]1CCCN(c2nc3ccccc3n(Cc3ccccc3)c2=O)C1` were, in that order, -5% and 0.81.
For `Cc1nc(N)nc(C)c1CC(=O)N(C)Cc1cccc2cnccc12` the same measures were 6% and -0.72.
For `Cc1cnc(COC(=O)c2cc(F)c(F)cc2Cl)o1`, the “% Inhibition” value is given as -5% and the Z score was 0.45.
As for `CCc1nc([C@H](C)NCC(=O)Nc2ccc(Cl)cn2)cs1`, the “% Inhibition” value is -11% and the Z score is reported as 1.15.
The like results for `C[C@H](NC(=O)N(C)CCN1CCCC1)c1ccc(O)cc1` were, in that order, -10% and 1.31.
For `O=C1CC[C@@H]2CN(Cc3c(F)cccc3F)CC[C@@H]2N1CC1CCCCC1` the same measures were -10% and 1.23.
The like results for `Cn1c(C(=O)N2CCOCC2)cc2occc21` were, in that order, -5% and 0.74.
For `O=C(CCc1cc2n(n1)CCCNC2)Nc1cccc2c1CCC2`, the “% Inhibition” value is given as -5% and the Z score was 0.7.
For `Cc1cc(O)cc(=O)n1C[C@@H]1OCCc2ccccc21`, the “% Inhibition” value is recorded as -10% and the Z score is on record as 1.56.
Consider `N#CCCOC1(C#CCN2CCCC2)CCCCC1`, for which the “% Inhibition” value amounted to 11% and the Z score is -1.49.
On to `CC1(C)OCC[C@@H]1CNc1ncnc2c1ncn2C1CC1`, for which the “% Inhibition” value was -6% and the Z score amounted to 0.97.
As to `COc1ccccc1CC(=O)N1CC(N2C(=O)COC2=O)C1`, the “% Inhibition” value is reported as -7% and the Z score is recorded as 0.79.
For `CO[C@](C)(C(=O)NCc1csc(=O)[nH]1)C1CC1` the same measures were -1% and 0.16.
For `Cc1ccc(Cl)cc1N(CCCC(=O)NC[C@H]1CCCO1)S(C)(=O)=O` the same measures were -20% and 2.31.
The like results for `O=C1CN(C(=O)Nc2ccc(-c3ccccn3)cc2)CCN1` were, in that order, 14% and -1.86.
With `Cc1ccoc1C(=O)N[C@@H]1CCC[C@@H]1F`, the “% Inhibition” value worked out at 1% and the Z score was -0.07.
For `Fc1cccc(-c2n[nH]c3c2CN(c2ccnc4[nH]ncc24)CC3)c1`, the “% Inhibition” value was -6% and the Z score came to 0.7.
For `COc1ccc(CN(C)C(=O)[C@H](C)c2ccnn2C)cc1Cl` the same measures were -12% and 1.49.
Turning to `CC(C)[C@H](Nc1ncc(Cl)cn1)c1nnc2n1CCC2`, the “% Inhibition” value is listed as -4% and the Z score was determined as 0.52.
For `O=C(Nc1ccccc1)OCC1(COC(=O)Nc2ccccc2)COC(c2ccc(Cl)cc2Cl)=N1` the same measures were -18% and 2.36.
For `COC(=O)[C@@]1(C)N[C@@H](c2cccnc2N2CCOCC2)[C@H]2C(=O)N(C)C(=O)[C@H]21` the same measures were 4% and -0.57.
`O=C(c1n[nH]c2ccccc12)N1CC[C@H]2[C@H](CCC(=O)N2CCCO)C1`: the “% Inhibition” value is on record as -9% and the Z score was determined as 1.52.
The like results for `COc1ccc(C(NC(=O)N2CCC[C@H]2c2nc3ccccc3[nH]2)C(C)C)cc1OC` (stereo partly specified) were, in that order, 11% and -1.79.
Take `Cc1cccc(C)c1CN1CC[C@@]2(C1)C(=O)N(CC(N)=O)c1ccccc12`: the “% Inhibition” value worked out at 2% and the Z score is -0.3.
Consider `CC(Oc1cccnc1)C(=O)N1CCNCC1C` (stereo unspecified), for which the “% Inhibition” value is on record as -4% and the Z score worked out at 0.55.
For the compound `COc1cccnc1-c1cccc(C(=O)N2CCC(F)(F)CC2)c1`, the “% Inhibition” value is -21% and the Z score is on record as 2.9.
Regarding `c1onc2c1CN(Cc1nc3c(s1)CCCC3)CC2`, the “% Inhibition” value is on record as -9% and the Z score is given as 0.93.
The like results for `CCCN1CCN(Cc2cccc3c(C)cccc23)[C@H]2CS(=O)(=O)C[C@H]21` were, in that order, 0% and 0.01.
The like results for `O=C(CN1CCC(O)CC1)N1CC[C@]23C(=O)N(Cc4cn(nn4)CCCOc4cccc(c4)[C@@H]12)c1ccccc13` were, in that order, -17% and 2.17.

The values are drawn from ChEMBL document CHEMBL4888484, “Replenishing the malaria drug discovery pipeline: Screening and hit evaluation of the MMV Hit Generation Library 1 (HGL1) against asexual blood stage Plasmodium falciparum ,using a nano luciferase reporter read-out” (2022).
